Data published in the supplement of paper PMC3334620.
In all, about 33,000 sequences were measured (“E-score (-0.5 to 0.5)”: median about -0.036, highest 2% from about 0.37 on). The list shows a part of the results.

These sequences were tested against T1, Yer064c (UniProt P40041) (assay: PBM E-score (8-mer binding enrichment) (E-score (-0.5 to 0.5)); higher = stronger / more preferred TF binding; most listed sequences are background and not binding sites). Settings: protein concentration: 200 nM; construct: GST-full length.
T1 sequence: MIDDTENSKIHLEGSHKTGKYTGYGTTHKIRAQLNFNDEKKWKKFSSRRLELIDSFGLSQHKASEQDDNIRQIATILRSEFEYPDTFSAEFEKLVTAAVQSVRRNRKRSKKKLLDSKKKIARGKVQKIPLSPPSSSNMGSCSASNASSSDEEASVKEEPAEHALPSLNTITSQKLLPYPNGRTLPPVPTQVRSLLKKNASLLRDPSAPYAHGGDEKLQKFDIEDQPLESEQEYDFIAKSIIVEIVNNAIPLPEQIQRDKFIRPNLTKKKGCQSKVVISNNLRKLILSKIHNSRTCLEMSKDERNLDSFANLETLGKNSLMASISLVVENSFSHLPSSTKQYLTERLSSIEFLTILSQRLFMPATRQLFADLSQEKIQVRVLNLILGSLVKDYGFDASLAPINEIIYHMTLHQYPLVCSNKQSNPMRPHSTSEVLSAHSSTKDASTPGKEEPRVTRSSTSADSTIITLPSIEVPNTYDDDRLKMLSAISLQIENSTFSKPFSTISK
In short: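 For each ungapped eight-base word taken together with its reverse complement, the Universal PBM Analysis Suite assigned an E-score. Binding data came from GST-tagged yeast transcription factors, applied at about 100-200 nM, on universal all-10-mer Agilent arrays made double-stranded by primer extension. Fluorescent anti-GST marked bound protein, and scans were normalised with masliner.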
For AGGAAGAT, the “PBM E-score” value was -0.0954. With GAGAAGAC the “PBM E-score” value was 0.0453. In the case of AAATTTGT, the “PBM E-score” value is reported as 0.105. For CCGTCGCG, the “PBM E-score” value was -0.0591. With GGTGTTTA the “PBM E-score” value was -0.0575. GAGCAAGA was tested, and the “PBM E-score” value was 0.121. CAGCCTCG was tested, and the “PBM E-score” value was 0.0424. For GTTCGGGA, the “PBM E-score” value was 0.0106. With CCGAGAGG the “PBM E-score” value was -0.13. For AGAATGTG, the “PBM E-score” value was 0.00651. In the case of CCTGCCCG, the “PBM E-score” value is reported as -0.12. With GTGAGATA the “PBM E-score” value was -0.00683. In the case of CTTTACCA, the “PBM E-score” value is reported as -0.0281. With CCGTGCCG the “PBM E-score” value was -0.101. With ATCCGAGC the “PBM E-score” value was -0.105. With CCACGAAG the “PBM E-score” value was 0.0637. In the case of CACGCCAG, the “PBM E-score” value is reported as -0.106. In the case of AGACTAAA, the “PBM E-score” value is reported as 0.398. In the case of CGTACAAA, the “PBM E-score” value is reported as 0.188. AGCGAAAG was tested, and the “PBM E-score” value was -0.163. In the case of ACCGCTAA, the “PBM E-score” value is reported as -0.0206. CATTATCA was tested, and the “PBM E-score” value was 0.129. For AGACAATA, the “PBM E-score” value was -0.0356. For GCGAGAGC, the “PBM E-score” value was -0.0885. For AATTTAAT, the “PBM E-score” value was 0.213. For AATTTGCT, the “PBM E-score” value was -0.0149. In the case of CAAATGCA, the “PBM E-score” value is reported as -0.0683. In the case of GCAAATGA, the “PBM E-score” value is reported as 0.0199. With CGAAAGAG the “PBM E-score” value was -0.00033. With TAGTATGA the “PBM E-score” value was 0.221. CCGAGCCA was tested, and the “PBM E-score” value was -0.077. AAGTGATC was tested, and the “PBM E-score” value was 0.103. With CTCGGTCA the “PBM E-score” value was -0.149. TCAGGAAA was tested, and the “PBM E-score” value was 0.128. ATATTGGA was tested, and the “PBM E-score” value was 0.032. In the case of GATTACGC, the “PBM E-score” value is reported as 0.268. With TAGTGGGA the “PBM E-score” value was -0.154. ACCCGGGG was tested, and the “PBM E-score” value was -0.195. For AGAGCGAG, the “PBM E-score” value was 0.0399. CCTACGCC was tested, and the “PBM E-score” value was -0.174. ACACACCA was tested, and the “PBM E-score” value was 0.0454. For GTAGACGA, the “PBM E-score” value was 0.094. In the case of ATCACGCC, the “PBM E-score” value is reported as 0.267. In the case of GCATCATA, the “PBM E-score” value is reported as 0.0926. With ACATAGGT the “PBM E-score” value was 0.0651. For ATAGAAGA, the “PBM E-score” value was -0.171. In the case of GACCAACA, the “PBM E-score” value is reported as 0.0213. For GACGATAC, the “PBM E-score” value was -0.214. TCATAGAA was tested, and the “PBM E-score” value was 0.194. ACACTTGA was tested, and the “PBM E-score” value was 0.263. In the case of CCACATAC, the “PBM E-score” value is reported as -0.0976. For AGAGCCCC, the “PBM E-score” value was -0.302. For GAAAGTAC, the “PBM E-score” value was 0.0207. With ATGGCATC the “PBM E-score” value was -0.139. In the case of GGAGCGAA, the “PBM E-score” value is reported as 0.0438. In the case of TATTAAGA, the “PBM E-score” value is reported as 0.145. GTATTTGA was tested, and the “PBM E-score” value was 0.134. With ATCTATTC the “PBM E-score” value was 0.141. With AGATTTCA the “PBM E-score” value was -0.0383. ACGGGATG was tested, and the “PBM E-score” value was -0.159. With CGTCGCAC the “PBM E-score” value was -0.186. With CCTGTTCC the “PBM E-score” value was -0.162. In the case of GGGCAGTA, the “PBM E-score” value is reported as -0.0703. In the case of GGGTCACA, the “PBM E-score” value is reported as 0.00589. CGGTACGC was tested, and the “PBM E-score” value was -0.151. With GAACCACA the “PBM E-score” value was 0.171. With CGCCATAA the “PBM E-score” value was -0.0011. GAGAACAC was tested, and the “PBM E-score” value was -0.0624. For TCGAAGCA, the “PBM E-score” value was -0.117. For ACCCAGAT, the “PBM E-score” value was -0.0932. With ATAAGTCC the “PBM E-score” value was 0.161. For CGGACGTC, the “PBM E-score” value was 0.0216. In the case of GACGTGAC, the “PBM E-score” value is reported as 0.188. AGAATGTC was tested, and the “PBM E-score” value was 0.0445. For TACGGACA, the “PBM E-score” value was 0.0661. ATCTTGTA was tested, and the “PBM E-score” value was 0.0633. ACACAATA was tested, and the “PBM E-score” value was -0.0198. TACACGCA was tested, and the “PBM E-score” value was -0.129. With TAAGCCAA the “PBM E-score” value was -0.0148. GACAGTGA was tested, and the “PBM E-score” value was 0.132. In the case of GAAAGCGA, the “PBM E-score” value is reported as -0.169. With AACTGCTA the “PBM E-score” value was 0.0473. In the case of AACTAAGA, the “PBM E-score” value is reported as 0.137. In the case of GATCTAGA, the “PBM E-score” value is reported as 0.0153. In the case of ACATCCAT, the “PBM E-score” value is reported as -0.125. In the case of AGCCTCTG, the “PBM E-score” value is reported as -0.205. With CAGGTGTC the “PBM E-score” value was 0.0065. CCCAAAGA was tested, and the “PBM E-score” value was -0.0474. For CGCCAAAC, the “PBM E-score” value was -0.0559. In the case of GGAGGGAA, the “PBM E-score” value is reported as -0.248. For GAACCTAA, the “PBM E-score” value was -0.112. CAGACAGG was tested, and the “PBM E-score” value was -0.206. AGATTGGA was tested, and the “PBM E-score” value was -0.101. In the case of CCTATACC, the “PBM E-score” value is reported as -0.227. GGCGATCA was tested, and the “PBM E-score” value was -0.108. For GAAGATGC, the “PBM E-score” value was -0.319.
